The values below come from PubChem BioAssay AID1745853 (National Center for Advancing Translational Sciences (NCATS), 2022).

Molecules are shown by their SMILES. Some of the results follow. Shown are side measurements of this screen, not its main read-out; they come without a call.

What all share (experiment): Primary Screen for Target Class Profiling of Small Molecule Inhibitors of Methyltransferases
The target of experiment [1] is Glycine N-methyltransferase (Homo sapiens) (UniProt Q14749). The note with it: purified enzyme, MTase-Glo SAH luminescence; measured here: GNMT inhibition; at 40 µM; stronger effect = lower value. A digest of the protocol: (§1)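 Each enzyme was assayed with SAM and its substrate. SAH formation detected by MTase-Glo luminescence; single-point 40 uM screen[…].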

Experiment [2] concerns the target Guanidinoacetate N-methyltransferase (Homo sapiens) (UniProt Q14353). The note with it: purified enzyme, MTase-Glo SAH luminescence; measured here: GAMT inhibition; at 40 µM; stronger effect = lower value. The procedure, abridged:
as §1

The target of experiment [3] is Histamine N-methyltransferase (Homo sapiens) (UniProt P50135). The note with it: purified enzyme, MTase-Glo SAH luminescence; measured here: HNMT inhibition; at 40 µM; stronger effect = lower value. A digest of the protocol:
as §1

Experiment [4] addresses Nicotinamide N-methyltransferase (Homo sapiens) (UniProt P40261). The note with it: purified enzyme, MTase-Glo SAH luminescence; measured here: NNMT inhibition; at 40 µM; stronger effect = lower value. The procedure, abridged: as §1
The target of experiment [5] is Phenylethanolamine N-methyltransferase (Homo sapiens) (UniProt P11086). The note with it: purified enzyme, MTase-Glo SAH luminescence; measured here: PNMT inhibition; at 40 µM; stronger effect = lower value. A digest of the protocol:
as §1
% is scaled to controls: 0 for no effect and ±100 for the full control effect.

Take `COc1ccc(CNC(=O)C2(C)Cn3cnc(C(=O)NCCc4ccccc4)c3C(=O)N2C2CC2)cc1` (stereo not given): the activity change, negative = inhibition in experiment [1] was 0.915%; in experiment [2], 1.02%; in experiment [3], 9.06%; in experiment [4], 0.895%; in experiment [5], 8.69%.
Taken in the same sequence, the figures for `Cc1ccccc1N1C(=O)c2cc3sccc3n2CC1(C)C(=O)NC1CCCC(C)C1C` (stereo not given) were 0.684%, 3.63%, 4.02%, -4.65% and 1.5%.
The like results for `CSc1ccc(CN2C(=O)c3ccc(-c4ccco4)n3CC2(C)C(=O)NC2CCCCCC2)cc1` (stereo not given) were, in that order, -2.94%, 0.21%, -0.3%, -1.16% and 2.38%.
Turning to `CC(C)c1ccc(NC(=O)c2cc3n(n2)CC(C)(C(=O)NC2CCCCCC2)N(C)C3=O)cc1` (stereo not given), the activity change, negative = inhibition in experiment [1] is -1.75%; in experiment [2], 2.26%; in experiment [3], -0.336%; in experiment [4], -0.394%; in experiment [5] it was 1.16%.
Taken in the same sequence, the figures for `CC(NC(=O)CCc1nnc2n(CCc3ccccc3)c(=O)c3ccccc3n12)c1ccccc1` (stereo not given) were -8.77%, 3.81%, -0.291%, -0.865% and -4.03%.
For the compound `CCc1ccc(NS(=O)(=O)c2cc3[nH]c(=O)[nH]c3cc2C)cc1`, the activity change, negative = inhibition was -0.913% in experiment [1]; 0.941% in experiment [2]; 2.07% in experiment [3]; -11.2% in experiment [4]; -22.3% in experiment [5].
`Cc1ccc(CNC(=O)C2(C)Cn3nc(C(=O)NCc4ccc(F)cc4)cc3C(=O)N2C)cc1` (stereo not given): the activity change, negative = inhibition in experiment [1] worked out at 7.2%; in experiment [2] it was 1.17%; in experiment [3], 5.02%; in experiment [4] it was 11.6%; in experiment [5], 7.89%.
For the compound `CC1(C(=O)NC2CCCCCC2)Cn2c(cc3occc32)C(=O)N1Cc1ccc(Cl)cc1` (stereo not given), the activity change, negative = inhibition in experiment [1] is -9.06%; in experiment [2] it was 2.63%; in experiment [3] it was -2.18%; in experiment [4], -7.01%; in experiment [5], -2.52%.
Turning to `COc1ccc(NC(=O)CSc2nnc3[nH]c(=O)c(C(C)(C)C)nn23)cc1OC`, the activity change, negative = inhibition in experiment [1] is -3.44%; in experiment [2], 0.336%; in experiment [3], -1.06%; in experiment [4] it was -6.63%; in experiment [5], -6.24%.
With `COc1ccc(-c2cc(=O)c3c(O)c(OC)c(OC)cc3o2)cc1O`, the activity change, negative = inhibition in experiment [1] was -34.2%; in experiment [2] it was -14.9%; in experiment [3], -32%; in experiment [4], -22%; in experiment [5] it was -22.8%.
Taken in the same sequence, the figures for `C=CC(N)CCC(=O)O` (stereo not given) were -5.36%, 2.99%, 0.36%, -2.72% and 8.9%.
Taken in the same sequence, the figures for `CC(C)CCNC(=O)C1(C)Cn2nc(C(=O)NCCN3CCCC3)cc2C(=O)N1C` (stereo not given) were 4.32%, 0%, 5.88%, 6.35% and 3.4%.
Taken in the same sequence, the figures for `CCC(C)NC(=O)c1ccc2c(=O)n(C(C)C)c3nn(CC(=O)Nc4ccccc4F)c(=O)n3c2c1` (stereo not given) were 4.64%, 0%, 3.97%, 3.2% and 0.827%.
With `CC(C)CCn1c(=O)c2ccc(C(=O)NC3CCCC3)cc2n2c(=O)n(CC(=O)c3ccccc3)nc12`, the activity change, negative = inhibition in experiment [1] is -4.82%; in experiment [2], 1.47%; in experiment [3] it was -3.36%; in experiment [4], -6.75%; in experiment [5] it was -3.57%.
The like results for `COCc1nc(C2CC(N)C2)cc(N2CCC(Cn3cccn3)CC2)n1` (stereo not given) were, in that order, 2.13%, 1.61%, 2.7%, -2.87% and 4.95%.
Taken in the same sequence, the figures for `COc1ccc(OC)c(CNS(=O)(=O)c2cc3[nH]c(=O)[nH]c3cc2C)c1` were 13%, 1.17%, 14%, 6.42% and 9.51%.
Consider `CCC1C(=O)NCCN1Cc1cn(-c2cccc(F)c2)nc1-c1ccc(C)o1` (stereo not given), for which the activity change, negative = inhibition is -25.5% in experiment [1]; -4.51% in experiment [2]; -2.49% in experiment [3]; -6.26% in experiment [4]; -15.8% in experiment [5].
Taken in the same sequence, the figures for `CCCn1c(=O)c2ccccc2n2c(=O)n(Cc3ccccc3Cl)nc12` were 0.843%, 6.8%, 7.92%, -9.33% and 4.77%.
In the case of `CC1(C)CC[C@]2(C(=O)O)CC[C@]3(C)C(=CCC4[C@@]5(C)C[C@@H](O)[C@H](O)[C@@](C)(CO)C5CC[C@]43C)C2C1` (stereo not given in full), the activity change, negative = inhibition is 3.64% in experiment [1]; 5.22% in experiment [2]; 6.05% in experiment [3]; -6.94% in experiment [4]; -0.904% in experiment [5].
The like results for `CCN(Cc1nccn1C)C(=O)c1ccc(N2CCC(COC)C2)nc1` (stereo not given) were, in that order, -2.4%, -1.76%, 0.271%, -2.58% and -1.97%.
Taken in the same sequence, the figures for `CSc1ccc(CCNC(=O)c2oc3cc4sc(N(C)C)nc4cc3c2C)cc1` were 4.79%, 0%, 5.88%, 10.3% and 3.25%.
As to `CC1=CCC(O)C2(C)CCC3C(C)C(=O)OC3C12` (stereo not given), the activity change, negative = inhibition in experiment [1] is -5.17%; in experiment [2] it was -6.09%; in experiment [3], 3.88%; in experiment [4], -15.9%; in experiment [5] it was -12.5%.
As for `CC1(C(=O)NC2CCCCCC2)Cn2c(cc3sccc32)C(=O)N1CCCc1ccccc1` (stereo not given), the activity change, negative = inhibition in experiment [1] is 1.5%; in experiment [2] it was 2.19%; in experiment [3], 4.72%; in experiment [4], 4.01%; in experiment [5], -1.18%.
Taken in the same sequence, the figures for `CCOC(=O)c1cc2n(n1)CC(C)(C(=O)NCc1ccccc1)N(c1ccccc1C)C2=O` (stereo not given) were 4.51%, 0%, 3.94%, 3.47% and 1.3%.
The like results for `COc1ccc(/C=C/C(=O)O[C@@H]2[C@@H](O[C@@H]3O[C@H](CO)[C@@H](O)[C@H](O)[C@H]3O)[C@@H](O)[C@H](O[C@H]3C4C=CO[C@@H](O[C@@H]5O[C@H](CO)[C@@H](O)[C@H](O)[C@H]5O)C4[C@@]4(CO)O[C@@H]34)O[C@H]2C)cc1` (stereo not given in full) were, in that order, -2.7%, -7.65%, 6.98%, -20.5% and -7.94%.
The like results for `Cc1ccccc1-c1cc(O)c2c(c1)CN(C(=O)C1CCNCC1)CCO2` were, in that order, -9.74%, -0.016%, -8.82%, -6.67% and -2.02%.
Turning to `COCC1(CNCC2CCCC2)C[C@@H](O)[C@@H](O)C1` (stereo not given in full), the activity change, negative = inhibition is -1.25% in experiment [1]; -6.58% in experiment [2]; -2.95% in experiment [3]; -8.76% in experiment [4]; -28.8% in experiment [5].
Taken in the same sequence, the figures for `O=S1(=O)CC(COCc2ccccc2)CN1c1ccccc1` (stereo not given) were -0.527%, 1.2%, 1.25%, -2.67% and -2.17%.
